The results in this text go back to PubChem BioAssay AID1963875 (Molecular Pharmacology Branch, DTP, NCI, 2024).

This test has as its system KRAS-mutant PDC complex spheroid viability. As to the kind of experiment: Anticancer human tumor 186277-243-T-J2-PDC patient-derived colon adenocarcinoma cell line growth inhibition [KRAS2]. Particulars: for viability, T/C: stronger effect = lower value; for IC50: compound alone. From the text: Multicellular complex tumor spheroid response to RAS pathway inhibitors in combination with a targeted agents in patient-derived cell lines with oncogenic KRAS variants from multiple cancer types
A high-throughput screen of multi-cell type tumor spheroids was designed to identify active combinations of targeted small molecules and KRAS pathway inhibitors. Complex spheroids include a stromal component modeled by human endothelial cells (HUVEC) and fibroblasts modeled by human mesenchymal stem cells (MSCs). The concentration ranges selected for each drug and investigational agent were based upon clinically achievable concentrations if the clinical Cmax of the agent was known.
Compounds. The drugs and investigational agents: BI-3406 (NSC825286), BAY-293 (NSC824723), batoprotafib (TNO155; NSC825523), sotorasib (AMG 510; NSC818433), MRTX1257 (NSC819558), elimusertib (BAY 1895344; NSC800525), molibresib (GSK525762; NSC774829), temuterkib (LY3214996; NSC803410), venetoclax (NSC766270), alisertib (NSC759677), olaparib (NSC753686), talazoparib (NSC767125), erdafitinib (NSC781556), ipatasertib (NSC767898), cabozantinib (NSC761068), nintedanib (NSC756659), abemaciclib (NSC768073), docetaxel (NSC628503), trametinib (NSC758246), and sapanisertib (NSC764658) were obtained from the National Cancer Institute (NCI) Developmental Therapeutics Program Chemical Repository. The FDA-approved anticancer drug set is available from the Developmental Therapeutics Program. […] The stock solutions were prepared in dimethyl sulfoxide (DMSO, Sigma-Aldrich, St. Louis, MO, cat. D2650) at 800-fold the tested concentration and stored at -70 degrees C prior to their use. All drugs and investigational agents were tested over a range starting from a high concentration at or near the clinical Cmax and decreasing in half-log increments. If the clinical Cmax for an agent had not been determined, the highest concentration tested was 10 microM.
Cell Culture. All cells were maintained in an incubator at 37 degrees C and 5% CO2 with 95% humidity. The PDC lines were cultured according to standard operating procedures established by the NCI PDMR (https://pdmr.cancer.gov/sops/default.htm). Briefly, all PDCs were thawed and cultured in Matrigel-coated flasks prepared with a working solution of 1X Ham's F-12 nutrient mix, without supplementation (Invitrogen, Waltham, MA, cat. 11765054), 100 U/mL penicillin-streptomycin (Invitrogen, cat. 15140122), and 2.5% Matrigel (Corning Inc., Corning, NY, cat. 354248) for the first three passages. All PDCs were cultured in complete DMEM/F-12 media containing advanced DMEM/F-12 (Invitrogen, cat. 12634028), 4.9% defined fetal bovine serum, heat inactivated (HyClone Laboratories Inc., Logan, UT, cat. SH30070.03HI), 389 ng/mL hydrocortisone (Sigma-Aldrich, cat. H4001), 9.7 ng/mL human EGF recombinant protein (Invitrogen, cat. PHG0313), 23.4 microg/mL adenine (Sigma-Aldrich, cat. A2786), 97.3 U/mL penicillin-streptomycin (Invitrogen, cat. 15140122), 1.9 mM L-glutamine (Invitrogen, cat. 25030081), and 9.7 microM Y-27632 dihydrochloride (Tocris Bioscience, Bristol, United Kingdom, cat. 1254). The PDCs were cultured in complete DMEM/F12 media without 9.7 microM Y-27632 dihydrochloride for at least two passages prior to the screen. The established cell line HOP-62 was cultured in RPMI 1640 medium, HEPES (Invitrogen, cat. 22400105) with 10% defined fetal bovine serum (HyClone Laboratories Inc., cat. SH30070.03) and 2 mM L-glutamine (Invitrogen, cat. 25030081). The pooled donor HUVEC were cultured in endothelial cell growth medium 2 (PromoCell, Heidelberg, Germany, cat. C-22011) and the hMSC were cultured in mesenchymal stem cell growth medium 2 (PromoCell, cat. C-28009). For all experiments, HUVEC and hMSC were used at passages </=5, while the malignant cell lines were used at passages </=15. […]

Not every entry of the source has a single result; some have several. This is not the full list of results. There may be further records. The records of an entry repeat one measurement across runs, samples, wells, individuals or studies. Marks such as (2×) give the number of equal values in this list. Bounds are passed on as bounds.
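Wherever viability, T/C is given: viability read after seven days of compound exposure; 100% = DMSO vehicle-treated spheroids so lower means less viable.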

As for `CC(C)NCC(C(=O)N1CCN(c2ncnc3c2C(C)CC3O)CC1)c1ccc(Cl)cc1` (stereo not drawn), where the note is “compound alone 3.16 µM”, the viability, T/C was 23.5, 23, 31, 3.34, 27%.
Take `COc1cc2nc(C)nc(NC(C)c3cc(N)cc(C(F)(F)F)c3)c2cc1OC1CCOC1` (stereo not drawn): the viability, T/C is, setting by setting: (compound alone 0.1 µM) 106, 101, 103 (2×), 93, 90.3, 85.8, 102, 86.5, 108, 85, 107, 98.4, 21.5, 9.66, 86.7, 97.3%; (compound alone 0.316 µM) 108, 102, 98, 96.6, 94.3, 98.6, 109, 96.9, 107, 97.9, 95, 98.5, 97.4, 65.8, 93.4, 97.2, 96.1%; (compound alone 3.16 µM) 104 (2×), 89.5, 103, 87.5, 105, 95.8, 112, 117, 95.1, 106, 82.3, 90.3, 100, 95.6, 79.5, 84.8%; (compound alone 10 µM) 107, 104, 93.8, 67.7, 63.6, 50.2, 84.2, 94.1, 67.1, 82.8, 73, 97.1, 102, 101, 110, 95.3, 93.5%. In addition, the IC50 (run of 07/26/2021) was > 10 µM and < 100 nM.
As to `CC(=O)Nc1cccc(-n2c(=O)n(C3CC3)c(=O)c3c(Nc4ccc(I)cc4F)n(C)c(=O)c(C)c32)c1`, the viability, T/C (compound alone 0.000316 µM) is on record as 101, 111, 85.3, 105, 78.4%.
With `CNCc1ccccc1-c1csc(C(C)Nc2nc(C)nc3cc(OC)c(OC)cc23)c1` (stereo not drawn), the viability, T/C was 99.2, 97.4, 104, 96.6, 107 (2×), 95.2, 113, 106 (2×), 115, 103, 86.8, 90.8, 90.1, 84.2, 96.8% (compound alone 1 µM) and 105, 103, 97.8, 22.6, 96.6, 54.8, 26.4, 19, 32.5, 24.7, 51.6, 75.8, 87.2, 78.8, 84.3, 70.3, 93.1% (compound alone 3.16 µM).
As for `CC1OCC2(CCN(c3cnc(Sc4ccnc(N)c4Cl)c(N)n3)CC2)C1N` (stereo not drawn), the viability, T/C is, setting by setting: (compound alone 0.316 µM) 114, 98.2, 122, 104 (3×), 103 (4×), 106, 116 (2×), 115, 109, 107, 98.4, 100, 94.9%; (compound alone 1 µM) 89.5, 100 (2×), 101 (3×), 118, 98.4 (2×), 110, 97.6, 116, 109, 108, 98.8, 93.7, 104, 92.2, 96.7%; (compound alone 3.16 µM) 47, 106, 95.2, 97.4, 86.8, 95.6, 84.2, 89.1, 102 (2×), 86.3, 83.5, 99.2, 111 (2×), 97.1, 97.7, 101, 87.8, 96.2%; (compound alone 10 µM) 87.1, 91.4, 71, 90, 60, 55.5, 37.9, 69.8, 85.6, 72.9, 83.3, 126, 116, 106 (2×), 123, 101, 127, 107, 99.8%.
Regarding `COc1cc2nccc(Oc3ccc(NC(=O)C4(C(=O)Nc5ccc(F)cc5)CC4)cc3)c2cc1OC`, the viability, T/C runs as follows: (compound alone 1 µM) 106, 96, 116, 18.2, 105%; (compound alone 10 µM) 13.5, 14.2, 14.5, 96.8, 17.9%.
Turning to `Cn1nccc1Nc1nccc(-c2cc3c(s2)C(C)(C)N(CCN2CCOCC2)C3=O)n1`, the viability, T/C (compound alone 0.316 µM) is recorded as 55.9, 58.1, 75.2, 57, 50.1%.
On to `CN(C)C/C=C/C(=O)Nc1cc2c(Nc3ccc(F)c(Cl)c3)ncnc2cc1O[C@H]1CCOC1`, for which the viability, T/C (compound alone 0.001 µM) is listed as 116, 96.7, 115, 97.4, 86.5%.
Consider `CCN1CCN(Cc2ccc(Nc3ncc(F)c(-c4cc(F)c5nc(C)n(C(C)C)c5c4)n3)nc2)CC1`, for which, under “compound alone 0.316 µM”, the viability, T/C is given as 146, 135, 174, 132%.
With `CC1COCCN1c1cc(-c2ccnn2C)c2ccnc(-c3ccn[nH]3)c2n1` (stereo not drawn), the IC50 is reported as 21.3 nM, 20.6 nM, 23.1 nM, < 10 nM, 21.5 nM. Besides, under “compound alone 0.01 µM”, the viability, T/C is given as 89.8, 88.6, 96.9, 11.1, 89.1%.
With `C=CC(=O)N1CCN(c2nc(OCC3CCCN3C)nc3c2CCN(c2cccc4cccc(C)c24)C3)CC1CC#N` (stereo not drawn), the viability, T/C is, setting by setting: (compound alone 0.1 µM) 83.9, 102, 107, 97.8, 97.3, 98.2, 111, 94.5, 104 (2×), 106, 98.4, 100, 101, 103, 105%; (compound alone 0.316 µM) 101 (3×), 104 (3×), 96.2, 81.2, 98.1, 95.4, 102 (2×), 98.5, 106, 96.9, 112%; (compound alone 1 µM) 87.7, 103, 102, 90.6, 90.8, 90.3, 97.7, 108, 114, 107, 110, 99.8, 89.5, 91, 82.9, 98.7%; (compound alone 3.16 µM) 93.5, 0.29, 0.37, 0.35, 0.19, 0.18, 0.25, 0.2, 0.21, 2.96, 6.07, 6.56, 1.81, 2.15%. For the same compound, where the note is “run of 07/12/2021”, the IC50 was > 3.16 µM, 1.79 µM, 1.8 µM, 1.67 µM, 1.68 µM.
Consider `COc1cc(OC)cc(N(CCNC(C)C)c2ccc3ncc(-c4cnn(C)c4)nc3c2)c1`, for which the IC50 is recorded as 6.23 µM, 6.32 µM, 6.93 µM, 262 nM, 6.27 µM. For the same compound, the viability, T/C (compound alone 0.316 µM) is 106 (2×), 104, 39.5, 92.1%. For the setting “compound alone 1 µM”, the viability, T/C is listed as 99.4, 101, 95.2, 0.64, 98.4%. In addition, the viability, T/C (compound alone 3.16 µM) is reported as 90.3, 89.7, 104, 1.02, 95.3%. Further, for the setting “compound alone 10 µM”, the viability, T/C is reported as 23, 23.6, 25.6, 0.04, 19.1%.
As for `COC(=O)c1ccc2c(C(=Nc3ccc(N(C)C(=O)CN4CCN(C)CC4)cc3)c3ccccc3)c(O)[nH]c2c1`, the viability, T/C (compound alone 3.16 µM) is on record as 45.5, 25, 27.5, 72.5, 53%.
As to `O=C(c1cc(Cc2n[nH]c(=O)c3ccccc23)ccc1F)N1CCN(C(=O)C2CC2)CC1`, the IC50 is 2.02, 2.16, 7.82, 8.44, 8.12 µM. For the same compound, for the setting “compound alone 1 µM”, the viability, T/C is recorded as 79.3, 75.4, 107, 95.9, 108%. The viability, T/C (compound alone 3.16 µM) is reported as 31.5, 38.9, 85.9, 103, 83%.
With `CCNC(=O)CC1N=C(c2ccc(Cl)cc2)c2cc(OC)ccc2-n2c(C)nnc21` (stereo not drawn), the viability, T/C (compound alone 0.316 µM) was 104, 130, 136, 120, 132%; the viability, T/C (compound alone 1 µM) is given as 168, 171, 167, 107, 153%; the viability, T/C (compound alone 3.16 µM) was 140, 145, 136, 84.2, 121%; the viability, T/C (compound alone 10 µM) is given as 113, 130, 111, 18.9, 95.2%.

As a reminder, the IC50 is the concentration needed to halve the response being measured.
